Results reported in PubChem BioAssay AID1346428 (National Center for Advancing Translational Sciences (NCATS), 2018).
The whole screen tested about 48,000 compounds, of which about 1,200 (2.5%) were called active. Not shown: some 2% with an inconclusive outcome.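 How the source made its calls: active means activation of at least 60% and not above a set upper limit (about 1 call in 100 departs from these limits); inconclusive means activation of 40% to 60%, or above that upper limit; inactive means activation under 40%.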 The list shows a part of the results.

The compounds below were run against Probable G-protein coupled receptor 32 (Homo sapiens) (UniProt O75388) (assay: qHTS for Agonists of Human Resolvin D1 Receptor DRV1). Conditions: CHO-K1 GPR32 beta-arrestin PathHunter luminescence, 90 min; at 76.9 µM; stronger effect = higher value; zero percent set by DMSO-only wells.
In short: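 Readings come from a cell-based beta-arrestin complementation format: CHO-K1 GPR32 stable cells (2,500/well) treated 90 min with compounds, then beta-Gal substrate added for 1 h before chemiluminescence imaging.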
Further: 0% is about no effect.

UniProt O75388, sequence (O75388 whole entry, looked up): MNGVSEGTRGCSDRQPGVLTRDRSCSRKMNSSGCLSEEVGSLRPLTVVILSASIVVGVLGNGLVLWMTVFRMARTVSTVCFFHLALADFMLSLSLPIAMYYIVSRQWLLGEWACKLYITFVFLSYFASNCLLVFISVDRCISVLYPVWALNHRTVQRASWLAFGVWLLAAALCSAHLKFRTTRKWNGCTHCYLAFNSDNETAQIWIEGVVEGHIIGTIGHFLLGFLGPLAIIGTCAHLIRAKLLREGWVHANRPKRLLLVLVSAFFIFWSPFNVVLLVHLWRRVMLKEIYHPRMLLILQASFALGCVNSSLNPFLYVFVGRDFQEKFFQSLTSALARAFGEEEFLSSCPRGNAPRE

SMILES	activation
CCn1c(=O)cc(SCC(=O)NCCc2cc(OC)ccc2OC)c2ccccc21	inactive: 20.7%
CC(C)c1ccc(OC(=O)c2cc(-c3ccc(Cl)cc3)on2)cc1	inactive: 11%
COc1ccc(CC(=O)NCC(c2ccc(N(C)C)cc2)N2CCOCC2)cc1 (stereo not drawn)	inactive: -7.59%
CCCNC(=O)N1[C@H](c2ccc(C)s2)[C@@H](C)C(=O)[C@@H](C)[C@@H]1c1ccc(C)s1	inactive: -15.7%
CCN(CC)C(=O)Cn1c(=O)nc(-c2ccccc2F)c2cc(Cl)ccc21	inactive: -14.5%
COC(=O)c1cnc(NCc2ccc(F)cc2)c2ccccc12	inactive: -27.6%
COc1ccc(N2C(=O)C(CC(=O)Nc3ccc(F)cc3)N(Cc3ccc4c(c3)OCO4)C2=O)cc1 (stereo not drawn)	inactive: -4.28%
Cc1cc(F)ccc1S(=O)(=O)Nc1ccc2c(c1)CCCN2C(=O)c1cccs1	inactive: 2.41%
CCOC(=O)Cc1ccc(NC(=O)NCc2cccn2Cc2ccccc2)cc1	inactive: -12.7%
NC(=O)COCCN1CCN(C(c2ccccc2)c2ccc(Cl)cc2)CC1 (stereo not drawn)	inactive: 0.798%
O=C1c2[nH]nc(-c3ccccc3O)c2C(c2ccccc2F)N1Cc1ccncc1 (stereo not drawn)	inactive: 2.2%
Cc1ccc(NC(=O)CSc2nc(-c3cccs3)nc3cc(=O)[nH]n23)cc1	active: 99.1%
COc1ccc(-n2c(=O)c3sc4ccccc4c3n(CC(=O)Nc3ccccc3F)c2=O)cc1	inactive: -11.5%
CCC(Cc1ccccc1)NC(=O)Cn1ncc2c3ccccc3n(Cc3ccccc3)c2c1=O (stereo not drawn)	inactive: 39.2%
CCOc1ccc(C(=O)c2cn(Cc3ccc(Cl)cc3)c3cc(OC)c(OC)cc3c2=O)cc1	inactive: 2.63%
CCc1nc2nc(C)cc(Nc3ccc(OC)cc3OC)n2n1	inactive: -6.04%
Cc1ccc(Nc2nnc(-c3ccc(C)c(S(=O)(=O)N4CCOCC4)c3)c3ccccc23)c(C)c1	inactive: -16.7%
O=C1Nc2ccccc2C1(c1ccc(O)cc1)c1ccc(O)cc1	inactive: -1.82%
Cc1ccc2c(c1)NC(=O)C(CC(=O)Nc1ccccc1Cl)O2 (stereo not drawn)	inactive: -4.52%
CC(C)C1CCC(C(=O)N[C@H](Cc2ccccc2)C(=O)O)CC1 (stereo partly drawn)	inactive: 3.66%
Cc1oc(-c2ccc(Cl)cc2)nc1CN1CCC(C(=O)NCCCN2CCN(c3cccc(Cl)c3)CC2)CC1	inactive: -2.62%

SMILES	activation
Cc1cc(C)n2nc(SCC(=O)Nc3ccccc3C)nc2n1	inactive: -0.212%
Cc1ccc(Cl)cc1N1CCN(C(=O)c2cc(S(=O)(=O)N3CCCC3)cn2C)CC1	inactive: -6.85%
CCOc1ccc(CNC(=O)C2CCN(S(=O)(=O)N3CCC(C)CC3)CC2)cc1OC	inactive: -9.2%
CC1=C(C(=O)Nc2cccnc2)C(c2cccc(Br)c2)n2nc(SCc3ccccc3)nc2N1 (stereo not drawn)	inactive: -3.19%
COc1ccc(C(=O)Nc2nc3nc(C)c(Cc4ccccc4)c(=O)n3[nH]2)cc1OC	inactive: 1.84%
Cc1ccc(CNC(=O)COCc2cc(-c3cccs3)on2)cc1	inactive: -2.44%
CC(=O)c1cccc(NC(=O)CN2C=NS(=O)(=O)c3ccc(C)cc32)c1	inactive: -4.65%
Cc1cccc(CNS(=O)(=O)c2ccc(-c3cnc(C4CC4)o3)cc2)c1	inactive: -14.5%
COc1cc(NC(=O)C2CCN(c3cnc4ccccc4n3)CC2)cc(OC)c1OC	inactive: -8.7%
CC1=C(C(=O)Nc2ccccc2C)C(c2ccncc2)n2nc(SCc3ccccc3Cl)nc2N1 (stereo not drawn)	inactive: -4.28%
CCn1c(=O)c2cc(C(=O)Nc3cc(OC)c(OC)c(OC)c3)sc2c2ccccc21	inactive: 15.8%
Cn1ccc2cc(S(=O)(=O)N3CCCC(C(=O)NCc4ccccc4)C3)ccc21 (stereo not drawn)	inactive: -22%
COc1ccc(S(=O)(=O)Nc2cccc(-c3ccc(N4CCC(C)CC4)nn3)c2)cc1OC	inactive: -3.11%
Cc1cc(-c2ccc(C)c(S(=O)(=O)NC(c3cccs3)C(C)C)c2)on1 (stereo not drawn)	inactive: 12.2%
O=C(COc1ccc(F)cc1)OCc1cc(=O)n2nc(C3CCCCC3)sc2n1	inactive: 24.6%
O=C(NCCS(=O)(=O)N1CCN(c2ccccc2)CC1)C1CC(=O)N(c2ccc(F)cc2)C1 (stereo not drawn)	inactive: -8.34%
COc1ccc(NC(=O)CCSc2nc(-c3ccc(OC)cc3)cc(C(F)(F)F)n2)cc1	inactive: -12.6%
CC(C)CCNC(=O)c1ccc2c(c1)NC(=O)C(CS(=O)(=O)Cc1ccc(F)cc1)N2 (stereo not drawn)	inactive: -4.89%
Cc1ccc(NC(=O)Cn2cc(C(=O)C3CC3)c3ccccc32)c(C)c1	inactive: -3.36%
CCc1nnc(SCc2c(F)cccc2Cl)c2cc3sccc3n12	inactive: 1.44%
COc1ccc(C(C(=O)NCc2ccccc2)N(C(=O)Cn2nnc3ccccc32)c2cccc(OC)c2)cc1 (stereo not drawn)	inactive: -16.3%

SMILES	activation
CC1=C(C(=O)N2CCN(c3cc(C)ccc3C)CC2)C2(CCC(C)CC2)OC1=O (stereo not drawn)	inactive: -21.8%
O=C(CSc1ncc2c(n1)-c1ccc(Cl)cc1N(Cc1ccccc1)S2(=O)=O)Nc1ccc(F)c(F)c1	inactive: -1.22%
COc1ccc2c(Sc3ccccc3)c(C(=O)NCCc3ccc(Cl)cc3)[nH]c2c1	inactive: -18.4%
O=C(CN1C(=O)COc2ccc(S(=O)(=O)N3CCCC3)cc21)N1CCN(c2ccccc2)CC1	inactive: -27%
COc1cc(OC)cc(C(=O)Nc2cc(-c3nc4cc(Cl)ccc4o3)ccc2Cl)c1	inactive: 0.604%
CCN1CCN(CCCNC(=O)c2cc3c(s2)-c2ccccc2OC3)CC1	inactive: -3.14%
CCOC(=O)C1CCCN(CC(=O)N2CCCc3c2c(=O)oc2ccc(OCc4ccccc4)cc32)C1 (stereo not drawn)	inactive: -1.67%
CCc1ccc(NC(=O)c2sc3ncnc(N(C)C4CCCCC4)c3c2C)cc1	inactive: -9.8%
O=C(NCc1ccc2c(c1)CCN2C(=O)c1ccccc1)c1cc2ccccc2[nH]1	inactive: -9.5%
CC(=O)C1=C(c2ccc(C)cc2)N(C(C)=O)n2c(nnc2C2CCCCC2)S1	inactive: -34.5%
COc1ccc(CNC(=O)Nc2ccc3c(c2)N(C)C(=O)c2ccccc2S3)cc1	inactive: -19.6%
CCOc1ccc(C2C(C(N)=O)=C(C)Nc3nc(SCc4ccccc4)nn32)cc1 (stereo not drawn)	inactive: -3.42%
CCCCNC(=O)CSc1nc2ccccc2nc1Cc1ccc(C)cc1	inactive: -2.44%
COc1cccc(CN2C(=O)c3ccccc3Sc3ccc(C(=O)N(C)Cc4ccccc4)cc32)c1	inactive: -16.8%
O=C(c1cccs1)c1cn(CCOc2ccccc2F)c2ccccc12	inactive: -27%
COc1cccc2cc(-c3nc(Nc4cccc(C)c4)sc3C)c(=O)oc12	inactive: -18.5%
COc1cc(C2c3c(-c4ccccc4O)n[nH]c3C(=O)N2CCO)ccc1OCc1ccccc1 (stereo not drawn)	inactive: -3.48%
COc1cccc(CNC(=O)c2ccc3nc(-c4ccc(F)cc4)c(-c4ccc(F)cc4)nc3c2)c1	inactive: -11.2%
CC(=O)c1cccc(NC(=O)c2nc3ccccc3n(C)c2=O)c1	active: 62.1%
CC(C)c1ccc(S(=O)(=O)c2nnn3c2nc(N2CCN(C)CC2)c2sccc23)cc1	inactive: -7.64%
CCOC(=O)c1ccccc1NC(=O)c1c2c(nc3ccccc13)C(=O)N(C1CCCCC1)C2	inactive: 0.559%

SMILES	activation
COc1ccccc1OCC(=O)N(Cc1ccco1)Cc1ccccc1F	inactive: -8.26%
CC(CNC(=O)c1ccc2c(c1)nc1n2CCCCC1)c1ccccc1 (stereo not drawn)	inactive: -14.8%
CCOc1ccc(CC(=O)NC2CC(=O)N(c3cccc(F)c3)C2)cc1 (stereo not drawn)	inactive: -2.76%
O=c1cc(COc2ccc(Cl)cc2Cl)nc2scc(-c3ccccc3)n12	inactive: 16.2%
CCOc1ccc(-n2c(=O)c3c(C)c(C)sc3n(CC(=O)C(C)(C)C)c2=O)cc1	inactive: -6.62%
Cc1cc(NS(=O)(=O)c2ccc(NC(=O)COc3c(C)ccc(C)c3C)cc2)nc(C)n1	inactive: 10.7%
Cc1ccc(C2C(=O)N(C3CCC(C)CC3)CC(=O)N2C2CCCC2)cc1 (stereo not drawn)	inactive: -16%
COc1ccccc1-c1nn2c(=O)cc(CN3CCN(C(=O)Nc4ccc(C)cc4Cl)CC3)nc2s1	inactive: 7.78%
COc1cc(C(=O)NCC(c2ccco2)S(=O)(=O)c2cccs2)cc(OC)c1OC (stereo not drawn)	inactive: 2.52%
CCc1cccc(C)c1NC(=O)c1ccc2c(c1)CCN2S(=O)(=O)c1ccc(Cl)cc1	inactive: -18%
COc1ccc(CNC(=O)COCc2cc(-c3ccc4c(c3)OCO4)on2)cc1	inactive: 1.18%
Cc1ccc(-n2c(=O)c3c(c4cc(C)ccc4n3C)n(CC(=O)Nc3ccc(F)cc3)c2=O)cc1	inactive: 17%
CC(=O)c1ccc(N2CCN(C(=O)c3cn(C)c(=O)c4c3c3ccccc3n4C)CC2)cc1	inactive: -2.44%
COCCCNc1nc2c(c(=O)n(Cc3ccc(F)cc3)c(=O)n2C)n1C	inactive: 5.71%
Cc1cc(C)cc(NC(=O)CCc2c(C)nc3nc(CNC(=O)c4cccc(F)c4)nn3c2C)c1	inactive: 0.706%
CCCCC(=O)Nc1nnc(S(=O)(=O)N(C)Cc2ccc(Cl)cc2)s1	inactive: 2.86%
COc1ccc(N(Cc2cccs2)C(=O)c2ccco2)cc1	inactive: -15.4%
COc1ccc(N2CCN(S(=O)(=O)c3ccc(CC(C)C)cc3)CC2)cc1	inactive: 16.6%
O=C(NCC(c1ccco1)S(=O)(=O)c1cccs1)c1ccccc1 (stereo not drawn)	inactive: -3.63%
COc1ccc(OC)c(S(=O)(=O)NCC(c2ccc(N(C)C)cc2)N2CCOCC2)c1 (stereo not drawn)	inactive: -8.19%
